Assay results published in patent EP4763988A1 (Minghui Pharmaceutical (Hangzhou) Ltd., dated 2025).
Read-outs that look alike come from different tables or passages of the source.

T1: Human CDCP1, His Tag (KACTUS, Cat.No. CDC-HM101) (human, UniProt Q9H5V8 30-667, limits assumed)
T1 construct: Bought protein coated on ELISA plates; also called human CDCP1 antigen; CDCP1 antigen; not shown: His tag
T1 sequence (looked up): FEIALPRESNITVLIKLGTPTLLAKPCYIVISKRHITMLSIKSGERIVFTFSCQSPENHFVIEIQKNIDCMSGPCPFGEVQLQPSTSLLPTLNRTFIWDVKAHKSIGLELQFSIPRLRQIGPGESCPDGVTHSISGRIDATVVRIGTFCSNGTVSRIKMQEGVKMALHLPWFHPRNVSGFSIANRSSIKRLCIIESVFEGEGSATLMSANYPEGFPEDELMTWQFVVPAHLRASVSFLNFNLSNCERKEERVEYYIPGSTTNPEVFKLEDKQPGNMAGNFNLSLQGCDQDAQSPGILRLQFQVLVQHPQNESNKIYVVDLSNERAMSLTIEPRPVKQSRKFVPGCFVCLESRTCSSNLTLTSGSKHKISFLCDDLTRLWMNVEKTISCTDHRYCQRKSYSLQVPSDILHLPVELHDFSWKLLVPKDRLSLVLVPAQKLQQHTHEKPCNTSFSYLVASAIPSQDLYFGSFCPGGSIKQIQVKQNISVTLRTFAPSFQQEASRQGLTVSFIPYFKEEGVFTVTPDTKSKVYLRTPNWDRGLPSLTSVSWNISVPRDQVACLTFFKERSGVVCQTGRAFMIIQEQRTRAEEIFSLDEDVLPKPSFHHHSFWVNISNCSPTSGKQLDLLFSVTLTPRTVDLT

T2: human CDCP1 endogenously expressed on tumor cells (HCT116, SW480, HT-29, LNCaP) (human, UniProt Q9H5V8 30-836)
T2 construct: whole, on cells; also called fl-CDCP1
T2 sequence (looked up): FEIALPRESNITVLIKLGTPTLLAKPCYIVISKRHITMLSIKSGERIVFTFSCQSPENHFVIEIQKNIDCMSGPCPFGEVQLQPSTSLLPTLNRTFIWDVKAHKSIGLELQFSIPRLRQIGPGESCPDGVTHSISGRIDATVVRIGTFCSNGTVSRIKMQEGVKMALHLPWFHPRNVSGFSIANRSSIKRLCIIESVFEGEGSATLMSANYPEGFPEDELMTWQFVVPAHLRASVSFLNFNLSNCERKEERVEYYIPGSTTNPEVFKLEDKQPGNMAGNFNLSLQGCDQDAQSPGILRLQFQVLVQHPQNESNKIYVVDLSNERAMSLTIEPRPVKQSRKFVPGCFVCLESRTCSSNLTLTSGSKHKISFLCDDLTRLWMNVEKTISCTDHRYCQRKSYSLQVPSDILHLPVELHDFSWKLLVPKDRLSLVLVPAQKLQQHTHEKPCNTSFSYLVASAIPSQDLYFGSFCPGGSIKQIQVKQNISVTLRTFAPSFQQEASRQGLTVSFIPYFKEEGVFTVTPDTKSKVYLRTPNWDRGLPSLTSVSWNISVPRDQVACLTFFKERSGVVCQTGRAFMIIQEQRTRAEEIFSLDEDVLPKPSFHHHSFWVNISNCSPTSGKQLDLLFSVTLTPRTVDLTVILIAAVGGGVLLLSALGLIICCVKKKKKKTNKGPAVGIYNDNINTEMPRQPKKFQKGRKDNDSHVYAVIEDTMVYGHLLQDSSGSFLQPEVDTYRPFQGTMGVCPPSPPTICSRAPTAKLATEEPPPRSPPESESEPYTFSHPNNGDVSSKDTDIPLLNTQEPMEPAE


Legend:
[1] = target: T1, Human CDCP1, His Tag (KACTUS, Cat.No. …); assay: ELISA, plate-coated CDCP1 His Tag 0.5 ug/mL, four-parameter fit
[2] = target: T1, Human CDCP1, His Tag (KACTUS, Cat.No. …); assay: as above; remark: listed apart in the source
[3] = target: T2, human CDCP1 endogenously expressed on …; assay: flow cytometry on HCT116 cells endogenously expressing human CDCP1
[4] = target: T2, human CDCP1 endogenously expressed on …; assay: as above; remark: listed apart in the source
[5] = target: T2, human CDCP1 endogenously expressed on …; assay: cell-based or functional assay
[6] = target: T2, human CDCP1 endogenously expressed on …; assay: flow cytometry on HCT116 cells endogenously expressing human CDCP1; remark: listed apart in the source
[7] = target: T1, Human CDCP1, His Tag (KACTUS, Cat.No. …); assay: ELISA, plate-coated CDCP1 His Tag 0.5 ug/mL, four-parameter fit; remark: listed apart in the source
[8] = target: T2, human CDCP1 endogenously expressed on …; assay: flow cytometry on HCT116 cells endogenously expressing human CDCP1; remark: listed apart in the source

| Binder | EC50 [1] | Top [1] | bottom [1] | EC50 [2] | Top [2] | bottom [2] | EC50 [3] | Top [3] | bottom [3] | EC50 [4] | Top [4] | bottom [4] | also measured |
| --- | --- | --- | --- | --- | --- | --- | --- | --- | --- | --- | --- | --- | --- |
| MHAB10-16 (Fc fusion, MW printed 76kDa; also called parental MHAB10-16) QLQLVESGGGLVQPGGSLRLSCAASGSDVSANGMVWHRQAPGKQREWVAVISSSGSTNYADSVKGRFTISRDSDKNTMYLQMNNLKPEDTAVYLCGVAHYGQTYWGKGTLVTVSS[human IgG1 Fc with changes cut from this listing] | 0.00545 µg/mL | 1.79 OD450 | 0.0448 OD450 | 0.00297 µg/mL | 1.61 OD450 | 0.0494 OD450 | 0.0553 µg/mL | 56200 MFI | 410 MFI | 0.0642 µg/mL | 61600 MFI | 857 MFI | Bottom, endocytosis-mediated cell killing (Fab-ZAP, HCT116 cells) [5]: 9.83%; EC50 (pM), endocytosis-mediated cell killing (Fab-ZAP, HCT116 cells) [5]: 16.8 pM; Top, endocytosis-mediated cell killing (Fab-ZAP, HCT116 cells) [5]: 67.6% |
| MHAB10-16-1 (Fc fusion, Humanized nanobody-Fc fusion, first round; MW printed 76kDa) EVQLVESGGGLVQPGGSLRLSCAASGSDVSANGMVWHRQAPGKQREWVAVISSSGSTNYADSVKGRFTISRDSDKNTMYLQMNSLRPEDTAVYLCGVAHYGQTYWGKGTLVTVSS[human IgG1 Fc with changes cut from this listing] | 0.00411 µg/mL | 2.18 OD450 | 0.0443 OD450 | – | – | – | – | – | – | 0.0784 µg/mL | 62200 MFI | 1130 MFI | – |
| MHAB10-16-2 (Fc fusion, Humanized nanobody-Fc fusion, first round; MW printed 76kDa) EVQLVESGGGLVQPGGSLRLSCAASGSDVSANGMVWHRQAPGKGREWVAVISSSGSTNYADSVKGRFTISRDSDKNTMYLQMNSLRPEDTAVYLCGVAHYGQTYWGKGTLVTVSS[human IgG1 Fc with changes cut from this listing] | 0.00363 µg/mL | 2.16 OD450 | 0.0455 OD450 | – | – | – | – | – | – | 0.08 µg/mL | 63400 MFI | 1180 MFI | – |
| MHAB10-16-3 (Fc fusion, Humanized nanobody-Fc fusion, first round; MW printed 76kDa) EVQLVESGGGLVQPGGSLRLSCAASGSDVSANGMVWHRQAPGKGREWVAVISSSGSTNYADSVKGRFTISRDNSKNTMYLQMNSLRPEDTAVYLCGVAHYGQTYWGKGTLVTVSS[human IgG1 Fc with changes cut from this listing] | 0.00298 µg/mL | 2.15 OD450 | 0.0343 OD450 | – | – | – | – | – | – | 0.074 µg/mL | 64000 MFI | 1100 MFI | Bottom, endocytosis-mediated cell killing (Fab-ZAP, HCT116 cells) [5]: 13.1%; EC50 (pM), endocytosis-mediated cell killing (Fab-ZAP, HCT116 cells) [5]: ~31.8 pM; Top, endocytosis-mediated cell killing (Fab-ZAP, HCT116 cells) [5]: 75.6% |
| MHAB10-16-4 (Fc fusion, Humanized nanobody-Fc fusion, first round; MW printed 76kDa) EVQLVESGGGLVQPGGSLRLSCAASGSDVSANGMVWHRQAPGKGREWVAVISSSGSTNYADSVKGRFTISRDNSKNTMYLQMNSLRPEDTAVYYCGVAHYGQTYWGKGTLVTVSS[human IgG1 Fc with changes cut from this listing] | 0.00382 µg/mL | 2.18 OD450 | 0.0462 OD450 | – | – | – | – | – | – | 0.0675 µg/mL | 64700 MFI | 700 MFI | Bottom, endocytosis-mediated cell killing (Fab-ZAP, HCT116 cells) [5]: 12.9%; EC50 (pM), endocytosis-mediated cell killing (Fab-ZAP, HCT116 cells) [5]: 21.2 pM; Top, endocytosis-mediated cell killing (Fab-ZAP, HCT116 cells) [5]: 73.2% |
| MHAB10-16-5 (Fc fusion, Humanized nanobody-Fc fusion, first round; MW printed 76kDa) EVQLVESGGGLVQPGGSLRLSCAASGSDVSANGMVWHRQAPGKGREWVAVISSSGSTNYADSVKGRFTISRDSDKNTMYLQMNSLRPEDTAVYYCGVAHYGQTYWGKGTLVTVSS[human IgG1 Fc with changes cut from this listing] | 0.0036 µg/mL | 2.17 OD450 | 0.0387 OD450 | – | – | – | – | – | – | – | – | – | EC50 [6]: 0.072 µg/mL; Top [6]: 63000 MFI; bottom [6]: 984 MFI |
| MHAB10-16-11 (Fc fusion, Humanized nanobody-Fc fusion, second round) QLQLVESGGGLVQPGGSLRLSCAASGSDVSANGMVWHRQAPGKGREWVAVISSSGSTNYADSVKGRFTISRDSDKNTMYLQMNSLRPEDTAVYLCGVAHYGQTYWGKGTLVTVSS[human IgG1 Fc with changes cut from this listing] | – | – | – | 0.00477 µg/mL | 1.59 OD450 | 0.0522 OD450 | 0.0695 µg/mL | 53400 MFI | 818 MFI | – | – | – | – |
| MHAB10-16-12 (Fc fusion, Humanized nanobody-Fc fusion, second round) QLQLVESGGGLVQPGGSLRLSCAASGSDVSANGMVWHRQAPGKGREWVAVISSSGSTNYADSVKGRFTISRDNSKNTMYLQMNSLRPEDTAVYLCGVAHYGQTYWGKGTLVTVSS[human IgG1 Fc with changes cut from this listing] | – | – | – | 0.00417 µg/mL | 1.6 OD450 | 0.0517 OD450 | 0.0741 µg/mL | 53900 MFI | 680 MFI | – | – | – | – |
| MHAB10-16-13 (Fc fusion, Humanized nanobody-Fc fusion, second round) QLQLVESGGGLVQPGGSLRLSCAASGSDVSANGMVWHRQAPGKGREWVAVISSSGSTNYADSVKGRFTISRDNSKNTMYLQMNSLRPEDTAVYYCGVAHYGQTYWGKGTLVTVSS[human IgG1 Fc with changes cut from this listing] | – | – | – | 0.00487 µg/mL | 1.59 OD450 | 0.054 OD450 | 0.0726 µg/mL | 54200 MFI | 637 MFI | – | – | – | – |
| MHAB10-16-15 (Fc fusion, Humanized nanobody-Fc fusion, second round) QLQLVESGGGLVQPGGSLRLSCAASGSDVSANGMVWHRQAPGKQREWVAVISSSGSTNYADSVKGRFTISRDNSKNTMYLQMNSLRPEDTAVYLCGVAHYGQTYWGKGTLVTVSS[human IgG1 Fc with changes cut from this listing] | – | – | – | – | – | – | – | – | – | – | – | – | EC50 [7]: 0.00489 µg/mL; Top [7]: 1.58 OD450; bottom [7]: 0.051 OD450; EC50 [8]: 0.0963 µg/mL; Top [8]: 53900 MFI; bottom [8]: 695 MFI |
| MHAB10-16-16 (Fc fusion, Humanized nanobody-Fc fusion, second round) QLQLVESGGGLVQPGGSLRLSCAASGSDVSANGMVWHRQAPGKQREWVAVISSSGSTNYADSVKGRFTISRDNSKNTMYLQMNSLRPEDTAVYYCGVAHYGQTYWGKGTLVTVSS[human IgG1 Fc with changes cut from this listing] | – | – | – | – | – | – | – | – | – | – | – | – | EC50 [7]: 0.00547 µg/mL; Top [7]: 1.56 OD450; bottom [7]: 0.0491 OD450; EC50 [8]: 0.0922 µg/mL; Top [8]: 53400 MFI; bottom [8]: 864 MFI |
| MHAB10-16-17 (Fc fusion, Humanized nanobody-Fc fusion, second round) QLQLVESGGGLVQPGGSLRLSCAASGSDVSANGMVWHRQAPGKQREWVAVISSSGSTNYADSVKGRFTISRDSDKNTMYLQMNSLRPEDTAVYYCGVAHYGQTYWGKGTLVTVSS[human IgG1 Fc with changes cut from this listing] | – | – | – | – | – | – | – | – | – | – | – | – | EC50 [7]: 0.00537 µg/mL; Top [7]: 1.56 OD450; bottom [7]: 0.0479 OD450; EC50 [8]: 0.119 µg/mL; Top [8]: 52900 MFI; bottom [8]: 889 MFI |
